Results published in patent US20200038399A1, “FORMULATIONS, METHODS, KIT, AND DOSAGE FORMS FOR TREATING BACTERIAL INFECTION” (Motif BioSciences Inc., priority 2016, published 2020).
The name of at least one read-out is uncertain. Some compounds share one wording; it may come from a single statement. For some assays here: At least one compound was matched to its structure with a doubt left. Positions of bridges follow the written chain, without caps; N, C: chain ends. Non-standard residues stand in square brackets, D forms with d. Residues, ends and D or L forms follow the SMILES beside them. *: point of attachment. Ileψ(thiazoline)Cys = CC[C@H](C)[C@H](N)C1=N[C@H](C(=O)*)CS1; dOrn = NCCC[C@@H](N)C(=O)O

Tests used:
Assay in all cases: checkerboard synergy assay with iclaprim
[1] = system: S. aureus 101; assay type: cell-based, Staphylococcus aureus; conditions: antibiotic in combination with iclaprim
Method: (§1) The synergistic potential of iclaprim against Gram-positive and Gram-negative bacteria was determined using the checkerboard assay as described in Eliopoulos GM and Moellering, Jr. RC (1991), Antimicrobial combinations, pp. 432-492, in V. Lorian (ed.), Antibiotics in laboratory medicine, 3rd Ed., The Williams & Wilkins Co., Baltimore, the entire disclosure of which is herein incorporated by reference, allowing multiple test concentrations of iclaprim to be assayed in the presence of various concentrations of the other antibiotic in microtiter plates. The same growth media and conditions were used as described in 3.2 below.
(§2) Two different dilutions were used for iclaprim depending on the MIC determined for the bacterium. […] Iclaprim and the other antibiotic being tested were also dispensed alone in the last row and in the last column, respectively, as controls.
(§3) The Fractional Inhibitory Concentrations (FIC) for each added agent were calculated and used to determine the sum of FIC (ΣFIC) indicative of the synergistic potential of a given combination as described in Veyssier P. (1999), Inhibiteurs de la dihydrofolate reductase, nitrohétérocycles (furanes) et 8-hydroxyquinoleines, pp. 995-1027, in A. Bryskier (ed.), Antibiotiques agents antibatériens et antifongiques, 1st Ed., Ellipses Edition Marketing SA, Paris, the entire disclosure of which is herein incorporated by reference. Synergy was defined whereby the ΣFIC was <0.5, indifference (no synergy nor antagonism) whereby ΣFIC was ≥0.5 but ≤4, and antagonism whereby ΣFIC was >4. Additivity as a special form of indifference was defined whereby the ΣFIC was ≥0.5 but <1, for example as described in Stevens, D L et al. (1998), In vitro antimicrobial effects of various combinations of penicillin and clindamycin against four strains of Streptococcus pyogenes, J. Antimicrob. Chemother. 42: 1266-1268, the entire disclosure of which is herein incorporated by reference.

[2] = system: Streptococcus pneumoniae ATCC 49619; assay type: cell-based; conditions: antibiotic in combination with iclaprim; S. pneumoniae 49619
Method: as §1, §2, §3

[3] = system: Staphylococcus aureus ATCC 25923; assay type: cell-based; conditions: antibiotic in combination with iclaprim; S. aureus 25923
Method: as §1, §2, §3

[4] = system: S. pneumoniae 1/1; assay type: cell-based, Streptococcus pneumoniae; conditions: antibiotic in combination with iclaprim
Method: as §1, §2, §3

Structure (SMILES) | Con (Conclusion) [1] | Con (Conclusion) [2] | Con (Conclusion) [3] | Con (Conclusion) [4]
CCn1cc(C(=O)O)c(=O)c2cc(F)c(N3CCNC(C)C3)c(F)c21 (centres unmarked) [Lomefloxacin] | Ind (Indifference (Ind)) | Ad (Additivity (Ad)) | Ind (Indifference (Ind)) | Ad (Additivity (Ad))
CC[C@H]1OC(=O)[C@H](C)[C@@H](O[C@H]2C[C@@](C)(OC)[C@@H](O)[C@H](C)O2)[C@H](C)[C@@H](O[C@@H]2O[C@H](C)C[C@H](N(C)C)[C@H]2O)[C@](C)(O)C[C@@H](C)/C(=N\OCOCCOC)[C@H](C)[C@@H](O)[C@]1(C)O [Roxithromycin] | Ind (Indifference (Ind)) | Ind (Indifference (Ind)) | Ind (Indifference (Ind)) | Ad (Additivity (Ad))
CO[C@H]1/C=C/O[C@@]2(C)Oc3c(C)c(O)c4c(O)c(c(/C=N/N5CCN(C)CC5)c(O)c4c3C2=O)NC(=O)/C(C)=C\C=C\[C@H](C)[C@H](O)[C@@H](C)[C@@H](O)[C@@H](C)[C@H](OC(C)=O)[C@@H]1C [Rifampicin] | Ad (Additivity (Ad)) | Ad (Additivity (Ad)) | Ad (Additivity (Ad)) | Ad-
CN(C)[C@@H]1C(O)=C(C(N)=O)C(=O)[C@@]2(O)C(O)=C3C(=O)c4c(O)cccc4[C@@](C)(O)[C@H]3C[C@@H]12 [Tetracycline, Tetracyclin] | Ind (Indifference (Ind)) | Ad (Additivity (Ad)) | Ind (Indifference (Ind)) | Ad (Additivity (Ad))
Cc1onc(-c2ccccc2Cl)c1C(=O)N[C@@H]1C(=O)N2[C@@H]1SC(C)(C)[C@@H]2C(=O)O [Cloxacillin] | Ind (Indifference (Ind)) | Ind (Indifference (Ind)) | Ad (Additivity (Ad)) | Ind (Indifference (Ind))
CC(=O)O[C@H]1C[C@@]2(C)[C@@H](C[C@@H](O)[C@H]3[C@@]4(C)CC[C@@H](O)[C@@H](C)[C@@H]4CC[C@@]32C)/C1=C(\CCC=C(C)C)C(=O)O [Fusidic acid] | Ind (Indifference (Ind)) | Ind (Indifference (Ind)) | Ind (Indifference (Ind)) | Ind (Indifference (Ind))
C[C@H]1c2cccc(O)c2C(=O)C2=C(O)[C@]3(O)C(=O)C(C(N)=O)=C(O)[C@@H](N(C)C)[C@@H]3[C@@H](O)[C@@H]21 [Doxycycline] | Ind (Indifference (Ind)) | Ind (Indifference (Ind)) | Ind (Indifference (Ind)) | Ind (Indifference (Ind))
NC(=O)c1cc[n+](CC2=C(C(=O)O)N3C(=O)[C@@H](NC(=O)[C@@H](c4ccccc4)S(=O)(=O)[O-])[C@H]3SC2)cc1 [Cefsulodine, Cefsulodin] | Ind (Indifference (Ind)) | Ind (Indifference (Ind)) | Ind (Indifference (Ind)) | Ind (Indifference (Ind))
[H]/N=C(/N)N[C@H]1[C@H](O)[C@@H](O)[C@H](O[C@@H]2O[C@@H](C)[C@](O)(C=O)[C@H]2O[C@@H]2O[C@@H](CO)[C@H](O)[C@@H](O)[C@@H]2NC)[C@@H](N/C(N)=N\[H])[C@@H]1O [Streptomycin] | Ind (Indifference (Ind)) | Ind (Indifference (Ind)) | Ind (Indifference (Ind)) | Ind (Indifference (Ind))
CCC[C@@H]1C[C@@H](C(=O)N[C@@H]([C@H]2O[C@H](SC)[C@H](O)[C@@H](O)[C@H]2O)[C@H](C)Cl)N(C)C1 [Clindamycin] | Ind (Indifference (Ind)) | Ind (Indifference (Ind)) | Ind (Indifference (Ind)) | Ad (Additivity (Ad))
CCN1CCN(C(=O)N[C@@H](C(=O)N[C@@H]2C(=O)N3[C@@H]2SC(C)(C)[C@@H]3C(=O)O)c2ccccc2)C(=O)C1=O [Piperacillin] | Ind (Indifference (Ind)) | Ind (Indifference (Ind)) | Ind (Indifference (Ind)) | Ad (Additivity (Ad))
CC1(C)S[C@@H]2[C@H](NC(=O)[C@H](N)c3ccccc3)C(=O)N2[C@H]1C(=O)O [Ampicillin] | Ind (Indifference (Ind)) | Ind (Indifference (Ind)) | Ind (Indifference (Ind)) | Ind (Indifference (Ind))
CO/N=C(\C(=O)N[C@@H]1C(=O)N2C(C(=O)O)=C(COC(C)=O)CS[C@H]12)c1csc(N)n1 [Cefotaxime] | Ind (Indifference (Ind)) | Ind (Indifference (Ind)) | Ind (Indifference (Ind)) | Ad (Additivity (Ad))
O=C(N[C@H](CO)[C@H](O)c1ccc([N+](=O)[O-])cc1)C(Cl)Cl [Chloramphenicol] | Ad (Additivity (Ad)) | Ad (Additivity (Ad)) | Ind (Indifference (Ind)) | Ind (Indifference (Ind))
NC[C@H]1O[C@H](O[C@H]2[C@H](O)[C@@H](O[C@H]3O[C@H](CO)[C@@H](O)[C@H](N)[C@H]3O)[C@H](N)C[C@@H]2N)[C@H](O)[C@@H](O)[C@@H]1O [Kanamycin] | Ind (Indifference (Ind)) | Ind (Indifference (Ind)) | Ind (Indifference (Ind)) | Ind (Indifference (Ind))
C[C@@H]1O[C@@H]1P(=O)(O)O [Fosfomycin] | Ind (Indifference (Ind)) | Ind (Indifference (Ind)) | Ind (Indifference (Ind)) | Ind (Indifference (Ind))
CCn1cc(C(=O)O)c(=O)c2cc(F)c(N3CCNCC3)cc21 [Norfloxacin] | Ad (Additivity (Ad)) | Ind (Indifference (Ind)) | Ad (Additivity (Ad)) | Ind (Indifference (Ind))
Cc1onc(-c2ccccc2)c1C(=O)N[C@@H]1C(=O)N2[C@@H]1SC(C)(C)[C@@H]2C(=O)O [Oxacillin] | Ind (Indifference (Ind)) | Ind (Indifference (Ind)) | Ind (Indifference (Ind)) | Ind (Indifference (Ind))
NC[C@H]1O[C@H](O[C@H]2[C@H](O)[C@@H](O[C@H]3O[C@H](CO)[C@@H](O)[C@H](N)[C@H]3O)[C@H](N)C[C@@H]2N)[C@H](N)C[C@@H]1O [Tobramycin] | Ind (Indifference (Ind)) | Ind (Indifference (Ind)) | Ad (Additivity (Ad)) | Ad (Additivity (Ad))
CC[C@H]1OC(=O)[C@H](C)[C@@H](O[C@H]2C[C@@](C)(OC)[C@@H](O)[C@H](C)O2)[C@H](C)[C@@H](O[C@@H]2O[C@H](C)C[C@H](N(C)C)[C@H]2O)[C@](C)(O)C[C@@H](C)C(=O)[C@H](C)[C@@H](O)[C@]1(C)O [Erythromycin] | Ind (Indifference (Ind)) | Ind (Indifference (Ind)) | Ind (Indifference (Ind)) | Ind (Indifference (Ind))
COc1ccc(C[C@H](N)C(=O)N[C@H]2[C@@H](O)[C@H](n3cnc4c(N(C)C)ncnc43)O[C@@H]2CO)cc1 [Puromycin] | Ind (Indifference (Ind)) | Ad (Additivity (Ad)) | Ind (Indifference (Ind)) | Ind (Indifference (Ind))
CO[C@@H]1[C@@H](OC(N)=O)[C@@H](O)[C@H](Oc2ccc3c(O)c(NC(=O)c4ccc(O)c(CC=C(C)C)c4)c(=O)oc3c2C)OC1(C)C [Novobiocin] | Ind (Indifference (Ind)) | Ad (Additivity (Ad)) | Ind (Indifference (Ind)) | Ind (Indifference (Ind))
CC[C@H](C)[C@H](N)C1=N[C@H](C(=O)N[C@@H](CC(C)C)C(=O)N[C@H](CCC(=O)O)C(=O)N[C@H](C(=O)N[C@H]2CCCCNC(=O)[C@H](CC(N)=O)NC(=O)[C@@H](CC(=O)O)NC(=O)[C@H](Cc3cnc[nH]3)NC(=O)[C@@H](Cc3ccccc3)NC(=O)[C@H]([C@@H](C)CC)NC(=O)[C@@H](CCCN)NC2=O)[C@@H](C)CC)CS1 [Bacitracin] ({Ileψ(thiazoline)Cys}-L[dE]IK[dOrn]I[dF]H[dD]N; lactam 4-C) | Ad (Additivity (Ad)) | Ad (Additivity (Ad)) | Ad (Additivity (Ad)) | Ad (Additivity (Ad))
